The other results are listed elsewhere or left out.
B1: chr17:65740002:65740003:+_ENSG00000130935_ENST00000581375|hu_hu|hu_hu_hu_mus_False|8_38 (ssRNA)
RNA: GGGAGUUCUACAGUCCGACGAUCAACAAAUCUUUCUUCCCUGGACGAACAGGAAGAUUCAUAUUAAAAAAAAUAUAUAUCCAUCAAGUUAGGUGUGUAAUAUCAGACUUUACUCCCAGCACUUUGGGAAUAUAAUCUCUGAGUCAACAGAGGAUUGAGCAUCA
B2: chr7:135612270:135612271:-_ENSG00000105887_ENST00000393085|hu_mus|hu_hu_hu_mus_False|58_58 (ssRNA)
RNA: GGGAGUUCUACAGUCCGACGAUCGUUUUUUUCUGAGAUGUUAAAUAGUACUUCAGUGGAAAACAAAACUUAACCUUUCGCUAAUGCGUGUUGUACCAAAAGCAGACAUUUUAGCUUCAUUUAUUCAAAAAUAUUAACAUUAAGCAACAGAGGAUUGAGCAUCA
B3: chr13:45008927:45008928:-_ENSG00000102804_ENST00000261489|hu_hu|motif|central (ssRNA)
RNA: GGGAGUUCUACAGUCCGACGAUCAGGACUGGCCAGUGUCUUCAGCAGAUUGUUCUCCUGCUCCAGCUGGGAAUUUUUCUCGGUUAGUUCUUUGAUUUGCUCUUUGAGGACCUCCACUUCUUCUCUGACCGCAUACAUCAAAUGCAACAGAGGAUUGAGCAUCA
B4: chr19:8913615:8913616:-_ENSMUSG00000071658_ENSMUST00000096259|mus_hu|mus_mus_mus_hu_False|1_68 (ssRNA)
RNA: GGGAGUUCUACAGUCCGACGAUCAGGGUACCAAAACCUUCUGCCUGAAAUGGGUGCCCCACCCAGUCAGGACUUGGAGCUGAAAGUAUCUGAUGCAGAAGCAGUGACUAUACGAAAGGAGGCCCCUGGGGAGGGCCCGAGAUCCAACAGAGGAUUGAGCAUCA
B5: chr7:151048522:151048523:+_ENSG00000013374_ENST00000566856|hu_mus|hu_hu_hu_mus_True|48_78 (ssRNA)
RNA: GGGAGUUCUACAGUCCGACGAUCCUGUUUCUUAUUUAUUACGAUCUUGAUGUAAUUUUCUUGAAGUCCGAAAGUUUCAGCUAUUUGGGACCUCAGUUCUCUACCAGUGACAUGCAAGCGGGUCUCCAACAAGCUUUUCUUAUCCAACAGAGGAUUGAGCAUCA
B6: chr6:85879240:85879241:+_ENSMUSG00000054226_ENSMUST00000067137|mus_mus|FALSE|FALSE (ssRNA)
RNA: GGGAGUUCUACAGUCCGACGAUCUACUGCUAUACUCUUUUAGCUGCCUCUUGUAUAAAGUGGGCACAAAGACAUAUCUACCUAAAAAGCAGCUAAGAGAGUUAAAUGAAUUGCUAUUUAUUGAGAUAGGAUUUGACAUAGUACCAACAGAGGAUUGAGCAUCA
B7: chr3:41417089:41417090:+_ENSMUSG00000025764_ENSMUST00000026865|mus_hu|motif|central (ssRNA)
RNA: GGGAGUUCUACAGUCCGACGAUCAACCAAGGAAGUACCCAUUUGUUUUCUGAAGAAUGCAGAAUGCCACUUCAAGUCCUCGGUCUUGGGAGCAUCAGGGCCAACAGAAGGACUGUUAAACAAAAGCAUGUUUUCCAGUGAGGACAACAGAGGAUUGAGCAUCA
B8: chr10:33190432:33190433:-_ENSG00000150093_ENST00000302278|hu_mus|hu_hu_hu_mus_True|8_68 (ssRNA)
RNA: GGGAGUUCUACAGUCCGACGAUCUACAUUUUCCAAACCUGCAUGUGAAUAAAACCCUGGCCACAGAGCCCUAAAGCUACCCUACUGUGACUAAGAUGCUGCUGCUGUGAGCUUGGUGUUGCAAAAUUUUGCACGGGAGGAUUCCAACAGAGGAUUGAGCAUCA
B9: chr16:24801560:24801561:+_ENSG00000090905_ENST00000315183|hu_mus|FALSE|FALSE (ssRNA)
RNA: GGGAGUUCUACAGUCCGACGAUCCAUUAGAGUUGCAUUCACAGUGUCACCAUUGGCUUGGCCAUUAGGGCCUGCACAUUUGUCGCCAGAGUAAUUAGAACCAUAGGCACCCCAUGUAGUACCGUAGGAGCCUCCAGUUUUUGACAACAGAGGAUUGAGCAUCA
B10: chr11:9452432:9452433:+_ENSG00000205339_ENST00000379719|hu_hu|FALSE|FALSE (ssRNA)
RNA: GGGAGUUCUACAGUCCGACGAUCAAAUGUCAUUGCCAAAUGUUGUGUCAUUUCUACUGCAAUAGGAGUAACUUCUUCACUAUAUUCACAGAUCAUUUUCUGAAUUACAUUGGUAAGGUCAUCAUUUUCUGUUUCUCUUAUAAUCAACAGAGGAUUGAGCAUCA
B11: 95994332_95994631_2066_CDS_ENSMUSG00000038486_ENSMUST00000035371|mouse|control|control (ssRNA)
RNA: GGGAGUUCUACAGUCCGACGAUCGCUGGAUGUAACAUCUUCAAAGUAACACUCCUCAAACAGGGAAUCCUCAAAGGACACUGACUUCAGACGCAGCCCGAUGAACUUGUCAUUGAAGUACUGUCCCCCUCGGUGGAUCUGAUUCAACAGAGGAUUGAGCAUCA
B12: chr17:55760890:55760891:+_ENSG00000153944_ENST00000284073|hu_hu|FALSE|FALSE (ssRNA)
RNA: GGGAGUUCUACAGUCCGACGAUCUGUAAACAAUUUCAUAUGCAAUAUAAUACAGAAAGCAUGGCUGACCUUCAAUAAAAAAUGUAGUAAACGAUAUUGCUUUAUUCUUGAAUAUGCUGCAGUGAGUGAAUGGCAGAAUGAAGCCAACAGAGGAUUGAGCAUCA
B13: chr13:30086970:30086971:-_ENSG00000139514_ENST00000380752|hu_hu|FALSE|FALSE (ssRNA)
RNA: GGGAGUUCUACAGUCCGACGAUCUGAUACGGAGGCUCAGCCCAUGGCCAUCCACCCGCCCUCCACCGCCGUGUUCACAAAUUCUUGCACUUCUCUCCAAGAACCUUCUGGGGGCACAGGGAGGGUACAAGUGCCCUCAAUUUACAACAGAGGAUUGAGCAUCA
B14: chr9:111179681:111179682:+_ENSMUSG00000046785_ENSMUST00000060711|mus_hu|motif|central (ssRNA)
RNA: GGGAGUUCUACAGUCCGACGAUCAACUUAAUAUUACAUAGUGGAUUUGGUGUGUAUAUUUGGUUUUGAAUCCUGAGUUUACGGCUUACUGUGUUUACCAGGGAAAACCGCAAUUUGUUAUCCUUCUCUCCUUUCAUACAACAGCAACAGAGGAUUGAGCAUCA
B15: chr5:128440902:128440903:+_ENSG00000066583_ENST00000173527|hu_mus|hu_hu_hu_mus_True|38_98 (ssRNA)
RNA: GGGAGUUCUACAGUCCGACGAUCUUGAACGGUGCUGCCAAGACCUUUGGGGUAUUGUUCCGUUAUGAUAACUGGAAUCCCUAAGAUCCGAGCUCCUUGCAACAAUCUCUGUCCCACACUAAUGAUGUCCCCAAAGUAUUUGAUCAACAGAGGAUUGAGCAUCA
B16: chr7:90019433:90019434:+_ENSMUSG00000057706_ENSMUST00000082237|mus_hu|mus_mus_mus_hu_True|78_78 (ssRNA)
RNA: GGGAGUUCUACAGUCCGACGAUCAAAUAAUACAGUGUUCUUUGCCAUAAGGCCAUAUAAAAAUAAAAAGAUUUAACCCAGCUACAAAAAAGUUCACUGAACUUAAAUUAAAAUACUUGUAAACAUCUUUGCAAUAUGAAAUAUCAACAGAGGAUUGAGCAUCA
B17: 208576698_208576818_349_CDS_ENSG00000163249_ENST00000295414|human|control|control (ssRNA)
RNA: GGGAGUUCUACAGUCCGACGAUCGAUGUGCUGCAGGUGGUGGCCCUCGCCCUCUCCGAAAUCCAACUCGGCAGGCUCCACCACAGCGGGCGCUACCGCCACCGCGUCCCCGGACACCGCCUCGUAGAUGUCGGACGCGCAGUACAACAGAGGAUUGAGCAUCA
B18: chr2:232320318:232320319:-_ENSG00000115053_ENST00000322723|hu_mus|FALSE|FALSE (ssRNA)
RNA: GGGAGUUCUACAGUCCGACGAUCACUAUUAAAGUCUACAAAACCAAACCCUUUGGAAGAACCAGUUUCCCGAUCAGUGACUAUUCUUGCACGAACAGAGCCCUCAAAUGAUUCUUUUAAGGUCUCUUCAGUGGUAUCCUCAGACAACAGAGGAUUGAGCAUCA
B19: 95850769_95853761_465_CDS_ENSG00000164941_ENST00000520526|human|control|control (ssRNA)
RNA: GGGAGUUCUACAGUCCGACGAUCAACUCAAGGUUAAGUUGUCUUCAAUGAAAAUCUGUAUUACCUCCUGAUAGUUGCCAGAUCUCAAACAAAUAUGGACUUGACUAUAUGGAGUCAACUGUUGAGAUGUACUAUCAGAAGAAGCAACAGAGGAUUGAGCAUCA
B20: chr16:94664741:94664742:+_ENSMUSG00000040785_ENSMUST00000117648|mus_hu|mus_mus_mus_hu_False|28_48 (ssRNA)
RNA: GGGAGUUCUACAGUCCGACGAUCUGGUACUGAUCUUGGUAGCUGAUAUUCAGGAGAAAGGCUGGCCAAGGGUGUAUAUAUGCUGGUGAACUGCGACAAACCUGGUACCAUGUUAAUGUAUGCUGGCGGUGUCUGGGUGAUAUCCAACAGAGGAUUGAGCAUCA
B21: chr1:243289802:243289803:-_ENSG00000143702_ENST00000366542|hu_mus|FALSE|FALSE (ssRNA)
RNA: GGGAGUUCUACAGUCCGACGAUCAAGGAAACGUCAUUCGUGUACUGUAACAUCCUCCUCUUCCCCAUCAGGGUUGAACCUAUUGAAAUGGAUACUGAAAUCAGCCUCAGAUUCAGCAUUCUCAAACUCAGUGGAGGCUGCUGCCAACAGAGGAUUGAGCAUCA
B22: chr19:40639365:40639366:-_ENSMUSG00000025007_ENSMUST00000025979|mus_hu|FALSE|FALSE (ssRNA)
RNA: GGGAGUUCUACAGUCCGACGAUCAGCUGCCACCUGGGGUAGACAGUCAGGACGAGAUUCAAAGAUCACCAGCAGAACUCCAAUUGGGACAGUCACUUGUUCCAGUUCCAAGUUUUUGGCGAUUCGGGUGCGGCGCAAAACACGCAACAGAGGAUUGAGCAUCA

Molecular target: T1, UNK ZnF1-3 (human, UniProt Q9C0B0 31-174)
T1 sequence: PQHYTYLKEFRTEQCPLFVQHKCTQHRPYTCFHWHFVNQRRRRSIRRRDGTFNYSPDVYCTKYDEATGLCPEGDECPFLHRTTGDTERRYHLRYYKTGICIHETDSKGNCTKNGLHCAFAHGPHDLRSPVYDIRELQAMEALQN
Assay: nsRBNS (natural sequence RNA bind-n-seq); RBNS binding buffer (assumed for nsRBNS): 25 mM Tris pH 7.5, 150 mM KCl, 3 mM MgCl2, 0.01% Triton X-100, 500 ug/ml BSA, 20 U/ml SUPERase-In, 4 C; UNK is unkempt and MSI1 is Musashi-1; names of the RNAs are library labels; protein concentration not given here; high values mean tight binding

Point of comparison: B8, binding signal 0.962 enrichment R. Against it:
- B1 — higher, 1.27 enrichment R
- B2 — higher, 1.03 enrichment R
- B3 — lower, 0.889 enrichment R
- B4 — higher, 1.54 enrichment R
- B5 — lower, 0.552 enrichment R
- B6 — higher, 1.41 enrichment R
- B7 — higher, 1.71 enrichment R
- B9 — higher, 0.964 enrichment R
- B10 — lower, 0.645 enrichment R
- B11 — lower, 0.883 enrichment R
- B12 — higher, 1.37 enrichment R
- B13 — lower, 0.953 enrichment R
- B14 — lower, 0.715 enrichment R
- B15 — lower, 0.632 enrichment R
- B16 — higher, 3.22 enrichment R
- B17 — lower, 0.573 enrichment R
- B18 — lower, 0.352 enrichment R
- B19 — lower, 0.442 enrichment R
- B20 — higher, 1.06 enrichment R
- B21 — lower, 0.719 enrichment R
- B22 — higher, 1.33 enrichment R

Reference: publication PMC12136788
